Measurements as given in PubChem BioAssay AID1745853 (National Center for Advancing Translational Sciences (NCATS), 2022).
Where “and” joins values, the source holds several entries; their conditions need not be identical. Equal entries are not always repeated. This is one part of the list. These are further read-outs of the screen, such as a control signal, another cell line or another target. No call is given for them.

How the values were obtained:
Experiment in all cases: Primary Screen for Target Class Profiling of Small Molecule Inhibitors of Methyltransferases
[1] = molecular target: Glycine N-methyltransferase (Homo sapiens) (UniProt Q14749); settings: purified enzyme, MTase-Glo SAH luminescence; measured here: GNMT inhibition; at 40 µM; stronger effect = lower value
In short: (§1)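 Each enzyme was assayed with SAM and its substrate. SAH formation detected by MTase-Glo luminescence; single-point 40 uM screen[…].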

[2] = molecular target: Guanidinoacetate N-methyltransferase (Homo sapiens) (UniProt Q14353); settings: purified enzyme, MTase-Glo SAH luminescence; measured here: GAMT inhibition; at 40 µM; stronger effect = lower value
In short: as §1

[3] = molecular target: Histamine N-methyltransferase (Homo sapiens) (UniProt P50135); settings: purified enzyme, MTase-Glo SAH luminescence; measured here: HNMT inhibition; at 40 µM; stronger effect = lower value
In short: as §1

[4] = molecular target: Nicotinamide N-methyltransferase (Homo sapiens) (UniProt P40261); settings: purified enzyme, MTase-Glo SAH luminescence; measured here: NNMT inhibition; at 40 µM; stronger effect = lower value
In short: as §1

[5] = molecular target: Phenylethanolamine N-methyltransferase (Homo sapiens) (UniProt P11086); settings: purified enzyme, MTase-Glo SAH luminescence; measured here: PNMT inhibition; at 40 µM; stronger effect = lower value
In short: as §1
On the % scale 0 is the no-effect control and ±100 the full control effect.

Row | Structure (SMILES) | activity change, negative = inhibition [1] | activity change, negative = inhibition [2] [%] | activity change, negative = inhibition [3] | activity change, negative = inhibition [4] | activity change, negative = inhibition [5]
1 | COc1ccc(C2c3cccn3-c3ccccc3CN2C(=O)Nc2ccccc2C)cc1OC (centres undefined) | 7.85% | 1.42 | -0.011% | 2.34% | 6.48%
2 | CCCN(CCC)[C@H]1CCc2c(F)ccc(O)c2C1 | 0.4% | 8.19 | -8.69% | -3.64% | 5.82%
3 | CC1c2cccn2-c2ccccc2CN1C(=O)Nc1ccccc1 (centres undefined) | 4.46% | 5.09 | 4.75% | -2.23% | 0.252%
4 | CSCC(=O)Nc1ccc2n(c1=O)C[C@H]1C[C@@H]2CN(C(=O)CSCC(=O)O)C1 | -3.56% | -8.92 | -6.5% | -10.1% | -10.5%
5 | CCOC(=O)C1CCC(CNC(=O)N2Cc3ccccc3-n3cccc3C2c2ccccc2)CC1 (centres undefined) | 11.9% | 2.92 | 6.88% | 5.62% | 9.27%
6 | c1ccc2c(c1)OCC(C1=NCCN1)O2 (centres undefined) | 1.67% | 8.18 | 10.9% | -6.77% | -5.53%
7 | C[C@]12CC[C@H](O)CC1=CC[C@@H]1[C@@H]2CC[C@]2(C)C(=O)CC[C@@H]12 | -0.878% | 6.48 | 8.64% | -10.1% | 4.15%
8 | N#Cc1ccccc1S(=O)(=O)N1C[C@@H]2C[C@H](C1)c1ccc(-c3ccc(Cl)cc3)c(=O)n1C2 | -15.6% | -9.96 | -7.02% | -19.8% | -10.7%
9 | CN(C)c1ccc(C2c3cccn3-c3ccccc3CN2C(=O)Nc2cc(F)ccc2F)cc1 (centres undefined) | 15.3% | 2.33 | 4.92% | 7.46% | 7.98%
10 | C[C@H]1O[C@@H](O[C@H]2C[C@@H](O)[C@]3(CO)C4C(CC[C@]3(O)C2)[C@@]2(O)CC[C@H](C3=CC(=O)OC3)[C@@]2(C)C[C@H]4O)[C@@H](O)[C@@H](O)[C@H]1O (some centres undefined) | 6.46% | – | 11% | – | –
11 | COc1cccc(NC(=O)N2Cc3ccccc3-n3cccc3C2c2ccccc2C)c1 (centres undefined) | -1.9% | 0.081 | -3.76% | -18.5% | -7.14%
12 | CCOC(=O)c1cccc(NC(=O)N2Cc3ccccc3-n3cccc3C2c2ccccc2Cl)c1 (centres undefined) | 10.2% | 0 | 1.76% | 2.35% | 4.04%
13 | Cc1cc([C@@H]2CCCN2C)on1 | -10.7% | -0.28 | -4.17% | -8.61% | 0.749%
14 | CCOc1ccc(C2c3cccn3-c3ccccc3CN2C(=O)Nc2cc(Cl)ccc2OC)cc1 (centres undefined) | -8.49% | -3.21 | -4.54% | -7.7% | -6.29%
15 | COc1ccc(NC(=O)N2Cc3ccccc3-n3cccc3C2c2ccc(N(C)C)cc2)cc1OC (centres undefined) | 2.88% | 0.623 | 1.17% | -2.13% | 1.9%
16 | COc1ccc(C2c3cccn3-c3ccccc3CN2C(=O)NCc2ccc(C)cc2)cc1OC (centres undefined) | 11.9% | 0 | 5.71% | 3.05% | 4.96%
17 | COc1cccc(NC(=O)N2Cc3ccccc3-n3cccc3C2c2cc(F)cc(F)c2)c1 (centres undefined) | 4.65% | 0 | 4.01% | 1.44% | -0.03%
18 | COc1ccc(Cl)cc1NC(=O)N1Cc2ccccc2-n2cccc2C1c1cccs1 (centres undefined) | 14.9% | 5.31 | 7.11% | -0.562% | 9.6%
19 | CCc1nc(C)c(C(=O)N2C[C@@H](c3ccc(F)cc3)[C@@H]3[C@H]2C2CCN3CC2)o1 | -0.612% | 1.98 | 1.32% | -2.45% | -0.273%
20 | CC[C@@H](CO)NC(=O)[C@@H]1C=C2c3cccc4c3c(cn4C)C[C@H]2N(C)C1 | -44.7% | -12.3 | -13.1% | -22.1% | -63.1%

Row | Structure (SMILES) | activity change, negative = inhibition [1] | activity change, negative = inhibition [2] [%] | activity change, negative = inhibition [3] | activity change, negative = inhibition [4] | activity change, negative = inhibition [5]
21 | COc1ccc2c(c1)c(CCN(C)C)cn2S(=O)(=O)c1ccccc1 | -3.31% | 9.3 | 2.63% | -14.3% | 0.86%
22 | CNC(=O)c1ccc(N2C(=S)N(c3ccc(C#N)c(C(F)(F)F)c3)C(=O)C23CCC3)cc1F | 1.69% | 3.7 | 11.8% | -14.7% | 2.25%
23 | COc1ccc(NC(=O)N2Cc3ccccc3-n3cccc3C2c2ccccc2)cc1 (centres undefined) | 6.17% | -1.64 | -5.06% | -5.2% | -1.2%
24 | COc1ccsc1CNCC[C@@]1(c2ccccn2)CCOC2(CCCC2)C1 | 1.62% | -4.16 | 4.88% | -13.5% | 0.579%
25 | CO[C@H]1[C@@H](O)[C@@H](C)O[C@@H](O[C@@H]2C=C3C(OC(C)=O)CC4(O)C(CC[C@]5(C)[C@@H](C6=CC(=O)OC6)CC[C@]45O)[C@@]3(C)CC2)[C@@H]1O (some centres undefined) | 0% | -1.44 | -3.77% | -12.1% | -2.63%
26 | CCC1c2cccn2-c2ccccc2CN1C(=O)Nc1ccc(Br)cc1 (centres undefined) | 2.49% | 4.41 | -0.253% | 2.58% | 5.66%
27 | CN(C)c1ccc(C2c3cccn3-c3ccccc3CN2C(=O)Nc2ccc3c(c2)OCCO3)cc1 (centres undefined) | 7.54% | 1.04 | 2.47% | -0.585% | 5.23%
28 | COc1ccc2c(c1OC)CN1CCc3cc4c(cc3C1C2)OCO4 (centres undefined) | – | -11.8 | – | -28.4% | -6.14%
29 | COc1ccc(C2c3cccn3-c3ccccc3CN2C(=O)Nc2ccccc2OC)cc1 (centres undefined) | 14.1% | 4.39 | 4.94% | 7.62% | 10.9%
30 | CCCCCCC1C(=O)O[C@H](C)[C@H](NC(=O)c2cccc(NC=O)c2O)C(=O)O[C@@H](C)[C@@H]1OC(=O)CC(C)C (some centres undefined) | -24.1% | – | 0.984% | – | –
31 | COc1ccc([C@@H]2CN(C(=O)Cc3nonc3C)[C@@H]3C4CCN(CC4)[C@@H]32)cc1 | -4.48% | -0.641 | -0.54% | -8.32% | -1.36%
32 | O=C(Nc1ccc(=O)n2c1[C@@H]1C[C@@H](CN(C(=O)NC3CCCCC3)C1)C2)c1ccco1 | -5.15% | -4.02 | -1.38% | -9.04% | -6.78%
33 | O=C(NCCc1ccccc1)N1Cc2ccccc2-n2cccc2C1c1ccccc1 (centres undefined) | 3.71% | 0 | 1.16% | -0.544% | 3.36%
34 | CC1c2cccn2-c2ccccc2CN1C(=O)Nc1ccc(F)cc1F (centres undefined) | 6.38% | 1.07 | -0.48% | -3.52% | 3.89%
35 | CCOc1ccc(C2c3cccn3-c3ccccc3CN2C(=O)Nc2cccc(SC)c2)cc1 (centres undefined) | 4.61% | 1.13 | 4.87% | 2.32% | 7.54%
36 | Cc1nc(-c2ccccc2)cc([C@H]2CN3CC[C@H]2C[C@@H]3CNS(C)(=O)=O)n1 | 0.758% | -6.84 | -4.23% | -12.9% | 2.94%
37 | CC(C)C1=NOC2(CCCN(Cc3ccccn3)C2)C1 (centres undefined) | -1.03% | 1.06 | 1.45% | -4.3% | 15.7%
38 | CC12NC(Cc3ccccc31)c1ccccc12 (centres undefined) | 8.3% | 8.58 | 2.62% | -7.82% | -1.94%
39 | CN(C)c1ccc(C2c3cccn3-c3ccccc3CN2C(=O)Nc2ccc(F)cc2)cc1 (centres undefined) | 7.21% | -0.339 | -8.2% | -2.88% | 2.03%
40 | C[C@H](Nc1ncnc2nc[nH]c12)c1nc2ccc(F)cc2c(=O)n1-c1ccccc1 | -13.9% | -22.6 | -3.23% | -24% | 2.2%

Row | Structure (SMILES) | activity change, negative = inhibition [1] | activity change, negative = inhibition [2] [%] | activity change, negative = inhibition [3] | activity change, negative = inhibition [4] | activity change, negative = inhibition [5]
41 | C=C[C@H]1CN2CC[C@H]1C[C@@H]2CNC(=O)Nc1ccc(Br)cc1 | -4.61% | -4.09 | -76.1% | -8.88% | -14.3%
42 | CCNC(=O)CC1N=C(c2ccc(Cl)cc2)c2cc(OC)ccc2-n2c(C)nnc21 (centres undefined) | 2.78% and -2.13% and 3.32% | -2.44 | 9.27% and 4.67% and 10.1% | -13.3% and 4.18% | 5.21% and 31.8%
43 | O=C1C=CC[C@@H]2[C@H]3CCCN4CCC[C@@H](CN12)[C@@H]34 | 2.9% | 1.03 | 0.77% | -10.7% | -1.73%
44 | Cc1ccccc1C1c2cccn2-c2ccccc2CN1C(=O)Nc1ccc(Cl)cc1 (centres undefined) | 11.8% | 0 | 10.7% | 0.226% | 8.71%
45 | O=C1N(Cc2cccnc2)C[C@H]2CN(C3CCC3)CCN12 | -2.12% | -3.87 | -0.826% | -3.59% | -14.7%
46 | Cc1ccc(C2c3cccn3-c3ccccc3CN2C(=O)Nc2ccc(C)c(C)c2)cc1 (centres undefined) | 4.61% | 1 | -5.98% | -8.69% | -4.18%
47 | C[N@@+]1(CC2CC2)CC[C@]23c4c5ccc(O)c4O[C@H]2C(=O)CC[C@@]3(O)[C@H]1C5 | 1.59% | – | 4.58% | – | –
48 | CCOc1ccc(NC(=O)N2Cc3c(C)cc(C)nc3-n3cccc3C2c2ccc(F)cc2)cc1 (centres undefined) | -3.13% | 4.3 | -2.33% | -3.35% | -7.95%
49 | C=CCN1CC[C@]23CCCCC2[C@H]1Cc1ccc(O)cc13 (some centres undefined) | -3.68% | 2.12 | -33.8% | -14.9% | 0.979%
50 | Cn1nc(C2CCCC2)cc1[C@H]1CN2CC[C@H]1C[C@@H]2CNC(=O)c1cccs1 | -3.4% | -4.01 | -7.75% | -11.3% | -20.3%
51 | COC(=O)CCNC(=O)N1Cc2ccccc2-n2cccc2C1c1ccccc1C (centres undefined) | 8.2% | 0.896 | -2.8% | 3.82% | 8.45%
52 | CCOC(=O)CNC(=O)N1Cc2ccccc2-n2cccc2C1c1cccc(C)c1 (centres undefined) | -0.595% | 2.1 | -2.97% | -6.55% | -1.34%
53 | C/C=C(\C)C(O)C(C)/C=C(C)/C=C/C/C(C)=C/Cc1nc(OC)c(OC)c(O[C@@H]2O[C@@H](C)[C@H](O)[C@@H](O)[C@H]2O)c1C (some centres undefined) | -1.69% | 4.34 | -4.98% | -6.14% | 2.46%
54 | CCc1ccc(C2c3cccn3-c3ccccc3CN2C(=O)Nc2ccc(C)c(C)c2)cc1 (centres undefined) | 10.8% | 2.18 | 7.49% | 10.1% | 9.34%
55 | COc1ccc(NC(=O)N2Cc3ccccc3-n3cccc3C2c2cccs2)cc1OC (centres undefined) | 9.03% | 5.56 | 1.83% | -5.1% | 6.13%
56 | CC(=O)N1CCC2(C1)N=C(c1cccnc1)C(=O)N2 (centres undefined) | -5.76% | -0.774 | -0.455% | -6.49% | 5.29%
57 | CCOCCCNC(=O)N1Cc2ccccc2-n2cccc2C1c1cccc(Cl)c1 (centres undefined) | 9.06% | 4.73 | 3.19% | -0.288% | 7.07%
58 | O=C(NCC1CCOCC1)c1cnc(Nc2ccc(Cl)cc2Cl)nc1C(F)(F)F | -7.1% | -12.8 | 0.237% | -36.5% | -2.59%
59 | CN1CCc2cccc(Cl)c2CC1 | 7.66% | 12.3 | -16.2% | -3.12% | -11.8%
60 | C[C@]12CC[C@@H]3c4ccc(OC(=O)N(CCCl)CCCl)cc4CC[C@H]3[C@@H]1CC[C@@H]2OP(=O)(O)O | -20.4% | 14.3 | 6.65% | -10.3% | 5.21%
